# Results reported in the supplement of paper PMC8728848.
# This is one part of the list.
# B1: XL-35 (Xenopus laevis) (protein)
# chain: MLVHILLLLVTGGLSQSCDPVVIVASKNMVKQLDCDKFRNCKEIKDSNEEAQDGIYTLTSPDGISYQTFCDMTTNGGGWTLVASVHENNMAGKCTIGDRWSSQQGNRADYPEGDGNWANYNTFGSAGGATSDDYKNPGYYDIEAYNLGVWHVPNKTPLSVWRNSSLQRYRTTDGILFKHGGNLFSLYRIYPVKYGIGSCSKDSGPTVPVVYDLGSANLTASFYSPGFRSQFTPGYIQFRPINTEKAALALCPGMKMESCNVEHVCIGGGGYFPEADPRQCGDFAAYDFNGYGTKKFNSAGIEITEAAVLLFYL
# How the values were obtained:
# Assay in all cases: glycan array binding signal (z-score within array); higher = stronger binding
# Details in all cases: glycan notation: IUPAC condensed, linker removed
# Gal(b1-3)GalNAc(b1-3)Gal = molecular target: Gal(b1-3)GalNAc(b1-3)Gal
# Procedure, shortened: (§1)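 Negative Z-scores can be read as non-binding. The Z-score is calculated within each array and then averaged across arrays of one protein sequence at different concentrations or buffers and across linkers. Arrays, 3228 in all, were curated from the Consortium for Functional Glycomics database and kept only where the protein sequence was available.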
# [1] = molecular target: Gal(b1-3)GalNAc(b1-3)Gal(a1-4)Gal(b1-4)Glc
# Procedure, shortened: as §1
# [2] = molecular target: Gal(b1-3)GalNAc(b1-3)Gal(b1-4)Glc
# Procedure, shortened: as §1
# [3] = molecular target: Gal(b1-3)GalNAc(b1-3)Gal(b1-4)GlcNAc
# Procedure, shortened: as §1
# [4] = molecular target: Gal(b1-3)GalNAc(b1-4)Gal(b1-4)Glc
# Procedure, shortened: as §1
# [5] = molecular target: Gal(b1-3)GalNAc(b1-4)[Neu5Ac(a2-3)]Gal(b1-4)Glc
# Procedure, shortened: as §1
# Gal(b1-3)GlcNAc = molecular target: Gal(b1-3)GlcNAc
# Procedure, shortened: as §1
# [6] = molecular target: Gal(b1-3)GlcNAc(a1-3)Gal(b1-4)GlcNAc
# Procedure, shortened: as §1
# [7] = molecular target: Gal(b1-3)GlcNAc(a1-6)Gal(b1-4)GlcNAc
# Procedure, shortened: as §1
# Gal(b1-3)GlcNAc(b1-2)Man = molecular target: Gal(b1-3)GlcNAc(b1-2)Man
# Procedure, shortened: as §1
# [8] = molecular target: Gal(b1-3)GlcNAc(b1-2)Man(a1-3)[Gal(b1-3)GlcNAc(b1-2)Man(a1-6)]Man(b1-4)GlcNAc(b1-4)GlcNAc
# Procedure, shortened: as §1
# [9] = molecular target: Gal(b1-3)GlcNAc(b1-2)Man(a1-3)[Gal(b1-3)GlcNAc(b1-2)Man(a1-6)]Man(b1-4)GlcNAc(b1-4)[Fuc(a1-6)]GlcNAc
# Procedure, shortened: as §1
# [10] = molecular target: Gal(b1-3)GlcNAc(b1-2)Man(a1-3)[GlcNAc(b1-4)][Gal(b1-3)GlcNAc(b1-2)Man(a1-6)]Man(b1-4)GlcNAc(b1-4)GlcNAc
# Procedure, shortened: as §1
# [11] = molecular target: Gal(b1-3)GlcNAc(b1-2)[Gal(b1-3)GlcNAc(b1-6)]Man(a1-6)[Gal(b1-3)GlcNAc(b1-2)Man(a1-3)]Man(b1-4)GlcNAc(b1-4)GlcNAc
# Procedure, shortened: as §1
# [12] = molecular target: Gal(b1-3)GlcNAc(b1-3)Gal(b1-3)GlcNAc
# Procedure, shortened: as §1
# [13] = molecular target: Gal(b1-3)GlcNAc(b1-3)Gal(b1-4)Glc
# Procedure, shortened: as §1
# [14] = molecular target: Gal(b1-3)GlcNAc(b1-3)Gal(b1-4)GlcNAc
# Procedure, shortened: as §1
# [15] = molecular target: Gal(b1-3)GlcNAc(b1-3)Gal(b1-4)GlcNAc(b1-2)Man(a1-3)[Gal(b1-3)GlcNAc(b1-3)Gal(b1-4)GlcNAc(b1-2)Man(a1-6)]Man(b1-4)GlcNAc(b1-4)GlcNAc
# Procedure, shortened: as §1
# [16] = molecular target: Gal(b1-3)GlcNAc(b1-3)Gal(b1-4)GlcNAc(b1-2)[Gal(b1-3)GlcNAc(b1-3)Gal(b1-4)GlcNAc(b1-6)]Man(a1-6)[Gal(b1-3)GlcNAc(b1-3)Gal(b1-4)GlcNAc(b1-2)Man(a1-3)]Man(b1-4)GlcNAc(b1-4)[Fuc(a1-6)]GlcNAc
# Procedure, shortened: as §1
# [17] = molecular target: Gal(b1-3)GlcNAc(b1-3)Gal(b1-4)GlcNAc(b1-3)Gal(b1-4)GlcNAc(b1-2)[Gal(b1-3)GlcNAc(b1-3)Gal(b1-4)GlcNAc(b1-3)Gal(b1-4)GlcNAc(b1-6)]Man(a1-6)[Gal(b1-3)GlcNAc(b1-3)Gal(b1-4)GlcNAc(b1-3)Gal(b1-4)GlcNAc(b1-2)Man(a1-3)]Man(b1-4)GlcNAc(b1-4)[Fuc(a1-6)]GlcNAc
# Procedure, shortened: as §1
# [18] = molecular target: Gal(b1-3)GlcNAc(b1-3)Gal(b1-4)GlcNAc(b1-6)[Gal(b1-3)GlcNAc(b1-3)]Gal(b1-4)Glc
# Procedure, shortened: as §1
# [19] = molecular target: Gal(b1-3)GlcNAc(b1-3)Gal(b1-4)[Fuc(a1-3)]GlcNAc
# Procedure, shortened: as §1
# [20] = molecular target: Gal(b1-3)GlcNAc(b1-3)Gal(b1-4)[Fuc(a1-3)]GlcNAc(b1-6)[Gal(b1-3)GlcNAc(b1-3)]Gal(b1-4)Glc
# Procedure, shortened: as §1
# [21] = molecular target: Gal(b1-3)GlcNAc(b1-3)GalNAc
# Procedure, shortened: as §1
# [22] = molecular target: Gal(b1-3)GlcNAc(b1-6)Gal(b1-4)GlcNAc
# Procedure, shortened: as §1
# [23] = molecular target: Gal(b1-3)GlcNAc(b1-6)GalNAc
# Procedure, shortened: as §1
# [24] = molecular target: Gal(b1-3)GlcNAc(b1-6)[Gal(b1-3)]GalNAc
# Procedure, shortened: as §1
# Gal(b1-3)GlcNAc6S = molecular target: Gal(b1-3)GlcNAc6S
# Procedure, shortened: as §1
# [25] = molecular target: Gal(b1-3)[Fuc(a1-4)]GlcNAc
# Procedure, shortened: as §1
# [26] = molecular target: Gal(b1-3)[Fuc(a1-4)]GlcNAc(b1-2)Man
# Procedure, shortened: as §1
# [27] = molecular target: Gal(b1-3)[Fuc(a1-4)]GlcNAc(b1-2)Man(a1-3)[Gal(b1-3)[Fuc(a1-4)]GlcNAc(b1-2)Man(a1-6)]Man(b1-4)GlcNAc(b1-4)[Fuc(a1-6)]GlcNAc
# Procedure, shortened: as §1
# [28] = molecular target: Gal(b1-3)[Fuc(a1-4)]GlcNAc(b1-3)Gal(b1-3)[Fuc(a1-4)]GlcNAc
# Procedure, shortened: as §1
# [29] = molecular target: Gal(b1-3)[Fuc(a1-4)]GlcNAc(b1-3)Gal(b1-4)GlcNAc
# Procedure, shortened: as §1
# [30] = molecular target: Gal(b1-3)[Fuc(a1-4)]GlcNAc(b1-3)Gal(b1-4)[Fuc(a1-3)]GlcNAc
# Procedure, shortened: as §1
# [31] = molecular target: Gal(b1-3)[Fuc(a1-4)]GlcNAc(b1-6)GalNAc
# Procedure, shortened: as §1
# [32] = molecular target: Gal(b1-3)[GlcNAc(b1-6)]GalNAc
# Procedure, shortened: as §1
# [33] = molecular target: Gal(b1-3)[GlcNAc(b1-6)]GlcNAc
# Procedure, shortened: as §1
# [34] = molecular target: Gal(b1-3)[Neu5Ac(a2-6)]GalNAc
# Procedure, shortened: as §1
binder,measurement,setting,value
B1,glycan array binding signal (z-score),Gal(b1-3)GalNAc(b1-3)Gal,-0.281
same,glycan array binding signal (z-score),[1],-0.2
same,glycan array binding signal (z-score),[2],-0.066
same,glycan array binding signal (z-score),[3],-0.143
same,glycan array binding signal (z-score),[4],-0.037
same,glycan array binding signal (z-score),[5],0.241
same,glycan array binding signal (z-score),Gal(b1-3)GlcNAc,-0.254
same,glycan array binding signal (z-score),[6],-0.448
same,glycan array binding signal (z-score),[7],-0.171
same,glycan array binding signal (z-score),Gal(b1-3)GlcNAc(b1-2)Man,-0.096
same,glycan array binding signal (z-score),[8],-0.375
same,glycan array binding signal (z-score),[9],0.327
same,glycan array binding signal (z-score),[10],-0.211
same,glycan array binding signal (z-score),[11],0.027
same,glycan array binding signal (z-score),[12],-0.035
same,glycan array binding signal (z-score),[13],0.019
same,glycan array binding signal (z-score),[14],-0.474
same,glycan array binding signal (z-score),[15],0.225
same,glycan array binding signal (z-score),[16],0.717
same,glycan array binding signal (z-score),[17],0.54
same,glycan array binding signal (z-score),[18],-0.214
same,glycan array binding signal (z-score),[19],-0.32
same,glycan array binding signal (z-score),[20],-0.425
same,glycan array binding signal (z-score),[21],-0.034
same,glycan array binding signal (z-score),[22],-0.191
same,glycan array binding signal (z-score),[23],-0.122
same,glycan array binding signal (z-score),[24],0.028
same,glycan array binding signal (z-score),Gal(b1-3)GlcNAc6S,0.119
same,glycan array binding signal (z-score),[25],-0.134
same,glycan array binding signal (z-score),[26],0.05
same,glycan array binding signal (z-score),[27],-0.308
same,glycan array binding signal (z-score),[28],-0.088
same,glycan array binding signal (z-score),[29],-0.059
same,glycan array binding signal (z-score),[30],-0.211
same,glycan array binding signal (z-score),[31],0.097
same,glycan array binding signal (z-score),[32],0.081
same,glycan array binding signal (z-score),[33],-0.039
same,glycan array binding signal (z-score),[34],-0.356
